Inconclusive results and toxic doses are left out. The source holds more than one record for some entries. Only these are listed. The source may hold further records. The records of an entry are repeated measurements across runs, samples, wells, individuals or studies.

This note sets out measurements from PubChem BioAssay AID274 (DTP/NCI, 2004).

In the assay the test system is BDF1 mice, Lewis lung carcinoma iv, survival T/C. The experiment in a line: NCI In Vivo Anticancer Drug Screen. Data for tumor model Lewis Lung Carcinoma (intravenous) in B6D2F1 (BDF1) mice. The following applies: endpoint: median survival time, higher = longer survival. The method, then:
The antitumor activity of compounds was measured in mice bearing transplantable tumors. Survival or tumor size were measured and the results are expressed as the measurement made in the treated group (T) divided by the measurement made in the vehicle treated control group (C). The tumor model used in this assay is Lewis Lung Carcinoma (intravenous) in B6D2F1 (BDF1) mice

For the molecule `CC(=O)C(O)N1C(=O)C=CC1=O` (configuration not stated), the T/C runs as follows: (dose: 1.25 mg/kg/injection, schedule: Q01DX009 (ip), vehicle: saline) 93 % of control and 168 % of control; (dose: 2.5 mg/kg/injection, schedule: Q01DX009 (ip), vehicle: saline) 89 % of control and 177 % of control; (dose: 5.0 mg/kg/injection, schedule: Q01DX009 (ip), vehicle: saline) 102 % of control and 167 % of control. On to `CC(CN1CC(=O)NC(=O)C1)N1CC(=O)NC(=O)C1` (configuration not stated), for which the T/C (dose: 500.0 mg/kg/injection, schedule: Q04DX003 (ip), vehicle: Klucel (hydroxypropylcellulose) (HPC)) was 107 % of control and 198 % of control. Take `CN(C)/N=N/c1nc[nH]c1C(N)=O`: the T/C (dose: 12.5 mg/kg/injection, schedule: Q01DX009 (ip), vehicle: Klucel (hydroxypropylcellulose) (HPC)) was 112 % of control and 153 % of control. For the molecule `N[C@@H](Cc1ccc(N(CCCl)CCCl)cc1)C(=O)O`, under “dose: 7.0 mg/kg/injection, schedule: Q04DX003 (ip), vehicle: saline”, the T/C is 113 % of control and 162 % of control. As for `COc1cccc2c1C(=O)c1c(O)c3c(c(O)c1C2=O)C[C@@](O)(C(=O)CO)C[C@@H]3OC1CC(N)C(O)C(C)O1` (some centres not stated), for the setting “dose: 16.0 mg/kg/injection, schedule: Q01DX001 (ip), vehicle: saline”, the T/C is 107 % of control and 169 % of control.
